The values below come from the supplement of paper PMC10600219.

Structures can show the parent of a compound that is named as a salt. What follows is the remainder of the data, with few or none of the lowest values.

In assay [1] the test system is NCI-H2228 alectinib-DTP. Kind of assay: cell viability relative to vehicle (fraction of vehicle); NCI-H2228 is an ALK-positive lung cancer line and DTP means drug-tolerant persister; higher = less growth inhibition. Conditions: 100 nM; treatment time 6 days. The procedure, abridged:
(§1)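 Parental NCI-H2228 cells and drug-tolerant persister cells (made with 1000 nM of a targeted drug for 13 days) were seeded in 384-well plates. The next day, the 3114-agent TargetMol anti-cancer compound library was added at 100 nM, with DMSO as vehicle. After 6 days, ATP was read with the CellTiter-Glo 3D Cell Viability Assay. Each value is cell viability relative to vehicle-treated cells.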

Assay [2] relates to NCI-H2228 parental. The assay is described as above. Conditions: 100 nM; treatment time 6 days. In short, it runs like this:
as §1

Take `Cc1ccc(C(=O)NCCCCCC(=O)Nc2ccccc2N)cc1`: the cell viability in assay [1] worked out at 1.04; in assay [2], 1.06.

For `CCOc1cc(NC(C)=O)ccc1C(=O)OC` [Ethopabate], the cell viability in assay [1] turned out to be 0.993; in assay [2], 1.21.

On to `Cc1ccccc1-n1c(Cn2nc(-c3cccc(O)c3)c3c(N)ncnc32)nc2cccc(C)c2c1=O`, for which the figures for the cell viability in assay [1] and in assay [2] were 0.922 and 1.08, respectively.

For the compound `COC(=O)C(CCCN=C(N)N)NS(=O)(=O)c1ccc(C)cc1` (centres undefined) [TOS-ARG-OME hydrochloride], the values for the cell viability in assay [1] and in assay [2] were 0.844 and 1.23, respectively.

For the compound `Cc1nc2c(-c3cnc(N)nc3)nc(N3CCOCC3)nc2n1C(C)C`, the cell viability in assay [1] worked out at 0.655; in assay [2] it was 0.611.

On to `CN1C2CCC1CC(OC(=O)C(O)c1ccccc1)C2` (centres undefined) [Homatropine Bromide], for which the cell viability in assay [1] was 1.02; in assay [2], 1.05.

`COc1cc(N2CCN(C(C)=O)CC2)ccc1Nc1ncc(Cl)c(Nc2ccc(N3CCN(C(C)=O)CC3)cc2OC)n1`: the figures for the cell viability in assay [1] and in assay [2] were 1.01 and 0.628, respectively.
